{"source": "PubChem BioAssay AID651820", "about": "(National Center for Advancing Translational Sciences (NCATS), 2012)", "note": "About 12,000 (3.5%) of roughly 340,000 compounds were called active. Inconclusive results, whose numbers are uncertain, are shown with a selection of clear calls. Calls follow the shape of the dose curve; as a rule, active = well fitted inhibition curve with a large enough effect; inconclusive = small, poorly fitted or top-dose-only effect, or another doubt; inactive = no such curve, though single readings can be large or run the other way. Potencies of inconclusive entries are left out as doubtful fits. Potency is read from the fitted curve at half-maximal effect; tags tell the direction and shape of the fitted curve."}
{"assay": "qHTS Assay for Inhibitors of Hepatitis C Virus (HCV)", "settings": "Huh7.5.1 HCVcc-Cre (HCVcc is cell-culture hepatitis C virus) infection, luciferase reporter, 44 h; series mostly up to 41.8 µM", "outline": "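Cells seeded at 1,000/well and cultured 4 h, then compounds added followed by HCVcc-Cre virus (~0.5 moi). After 44 h further culture, luciferase substrate was added, plates held 15 min at room temperature, and luminescence read for 15 sec.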"}
{"smiles": "CN(CC(=O)Nc1ccccc1Br)C(=O)CNC(=O)c1ccc(Oc2ccccc2)cc1", "Potency": "inconclusive [inhibitor, partial curve]"}
{"smiles": "COC(=O)C=C1CCC2C3CCC4=CC(=O)C(Br)CC4(C)C3C(=O)CC12C", "note": "(stereo unspecified)", "Potency": "inconclusive [inhibitor, full curve]"}
{"smiles": "COc1ccc(C2=NOC(C(=O)NCc3cccs3)C2)cc1", "note": "(stereo unspecified)", "Potency": "inactive"}
{"smiles": "Cc1ccc(-n2c(CCc3ccccc3)n[nH]c2=S)cc1C", "Potency": "inactive"}
{"smiles": "COc1cc(/C=C/C(=O)O)cc(OC)c1", "Potency": "inactive"}
{"smiles": "COc1ccccc1-c1cc(C(=O)N2CCN(c3ccc(F)cc3)CC2)no1", "Potency": "inconclusive [inhibitor, single point]"}
{"smiles": "COc1ccc(NC(=O)c2cc3c([nH]c4ccccc43)c(C)n2)cc1", "Potency": "inconclusive [inhibitor, full curve, poor fit]"}
{"smiles": "Cc1cc2c(C)nc(N/N=C/c3ccccc3)nc2o1", "Potency": "inconclusive [inhibitor, single point]"}
{"smiles": "Cc1ccc(S(=O)(=O)NCC(c2ccco2)N2CCc3ccccc32)cc1", "note": "(stereo unspecified)", "Potency": "inconclusive [inhibitor, single point]"}
{"smiles": "CCCN1CCN(C(=O)Nc2ccc(C(=O)OCC)cc2)CC1", "Potency": "inactive"}
{"smiles": "CCC(=O)NCCN1CCN(C(=O)CC)CC1", "Potency": "inconclusive [inhibitor, single point]"}
{"smiles": "Cc1nc2nc(C)c(CCC(=O)NCc3ccc4c(c3)OCO4)c(C)n2n1", "Potency": "inactive"}
{"smiles": "Cc1ccc(CNC(=O)CNC(=S)N(Cc2ccccc2)Cc2ccccc2F)cc1", "Potency": "inconclusive [inhibitor, single point]"}
{"smiles": "CN(C)C(CNC(=O)CSc1nnc(-c2ccco2)o1)c1ccccc1", "note": "(stereo unspecified)", "Potency": "inactive"}
{"smiles": "COc1ccc(C(=O)Nc2ccc(OC)c([N+](=O)[O-])c2)cc1Br", "Potency": "inconclusive [inhibitor, partial curve]"}
{"smiles": "COc1ccccc1C(=O)N1CCN(Cc2cccnc2)CC1", "Potency": "inactive"}
{"smiles": "CCCCCn1ccc(=O)c2c(C(F)(F)F)nccc21", "Potency": "active: 11.2 µM"}
{"smiles": "C1=C(c2cccc3ccccc23)N2CCN=C2S1", "Potency": "inconclusive [inhibitor, single point]"}
{"smiles": "O=c1[nH]c2cc(Cl)c(Br)cc2o1", "Potency": "inactive"}
{"smiles": "COCCN(C(=O)c1snc(C(N)=O)c1N)C(C(=O)NC1CCCCC1)c1ccc(OC)c(OC)c1", "note": "(stereo unspecified)", "Potency": "inactive"}
{"smiles": "O=[N+]([O-])c1cc(C(F)(F)F)ccc1NCCCCNS(=O)(=O)c1ccc(Cl)cc1", "Potency": "inconclusive [inhibitor, single point]"}
{"smiles": "Nc1ccccc1Oc1ccc2ccccc2c1", "Potency": "inconclusive [inhibitor, single point]"}
{"smiles": "Cc1ccc(SSc2cc(C)ccc2N)c(N)c1", "Potency": "inconclusive [inhibitor, single point]"}
{"smiles": "CCOC(=O)c1cc(S(=O)(=O)Nc2ccc(OC)cc2OC)cn1C", "Potency": "inactive"}
{"smiles": "CCC1CN(C(=O)N2CCC(C(=O)NCc3ccccc3OC)CC2)c2cc(C)ccc2O1", "note": "(stereo unspecified)", "Potency": "inconclusive [inhibitor, single point]"}
{"smiles": "CCOC(=O)C1(CCOc2ccccc2)CCN(Cc2ccc(CO)o2)CC1", "Potency": "inconclusive [inhibitor, partial curve]"}
{"smiles": "COc1ccc(-n2ncc(C(C)NS(=O)(=O)c3cccs3)c2C)cc1", "note": "(stereo unspecified)", "Potency": "inconclusive [inhibitor, single point]"}
{"smiles": "CC(C)CCN(CCC(C)C)C/C(O)=C(\\C#N)c1nc(-c2ccccc2)cs1", "Potency": "inconclusive [inhibitor, partial curve, poor fit]"}
{"smiles": "N#Cc1c(N2CCN(C(=O)c3ccco3)CC2)nc(-c2ccccc2)c2c1CCCC2", "Potency": "inconclusive [inhibitor, single point]"}
{"smiles": "COc1ccc(CCNC(=O)c2ccc3nc(N4CCCCC4)sc3c2)cc1OC", "Potency": "inconclusive [inhibitor, partial curve]"}
{"smiles": "c1ccc(C[C@H]2CNCCN2CC2(c3ccccc3)CC2)cc1", "Potency": "inconclusive [inhibitor, single point]"}
{"smiles": "CCOC(=O)c1c(NC(=O)COc2ccccc2OCC)sc2c1CC(C)(C)NC2(C)C", "Potency": "inconclusive [inhibitor, partial curve]"}
{"smiles": "CCCN(CCC)CCNS(=O)(=O)c1ccc2c(c1)CCN2C(=O)C1CCC1", "Potency": "inconclusive [inhibitor, partial curve]"}
{"smiles": "CCOc1cc2c(cc1OCC)-n1cccc1C(c1ccc(OC)cc1)NC2", "note": "(stereo unspecified)", "Potency": "inactive"}
{"smiles": "O=C(COC(=O)c1ccco1)c1ccc(Cl)cc1", "Potency": "inconclusive [inhibitor, single point]"}
{"smiles": "O=[N+]([O-])c1ccc(C[n+]2c(-c3ccccc3)cc(-c3ccccc3)cc2-c2ccccc2)cc1", "Potency": "active: 10 µM"}
{"smiles": "COc1ccc(/C=N/Nc2cc(C)nc(-n3nc(C)cc3C)n2)c(OC)c1", "Potency": "inconclusive [inhibitor, partial curve]"}
{"smiles": "COc1ccc(C2=NS(=O)(=O)N(C)C(C(=O)N3CCc4ccccc4C3)=C2)cc1OC", "Potency": "active: 10 µM"}
{"smiles": "CCOCCCNC(=S)Nc1ccc2nc(N3CCN(CC)CC3)cc(C)c2c1", "Potency": "inconclusive [inhibitor, single point]"}
{"smiles": "Cc1ccc(C(=O)c2nc(C(=O)NCCO)nc3ccccc23)cc1", "Potency": "inactive"}
{"smiles": "O=C(Nc1cccc(Cl)c1)OCCOC(=O)Nc1cccc(Cl)c1", "Potency": "inconclusive [inhibitor, single point]"}
{"smiles": "COc1ccc(CC(C)CC(=O)NCCc2ccc(OC)c(OC)c2)cc1", "note": "(stereo unspecified)", "Potency": "inconclusive [inhibitor, single point]"}
{"smiles": "CC(OC(=O)CC1CCCCC1)C(=O)Nc1cccc(C#N)c1", "note": "(stereo unspecified)", "Potency": "inconclusive [inhibitor, single point]"}
{"smiles": "N#Cc1ccc(CN2CCN(C(=O)c3ccc(S(=O)(=O)N4CCCCCC4)cc3)CC2)cc1", "Potency": "active: 7.94 µM"}
{"smiles": "COc1ccc(OC)c(NC(=O)CNC(=O)Cn2ccc3ccccc3c2=O)c1", "Potency": "inconclusive [inhibitor, partial curve]"}
{"smiles": "O=C(O)C1CCN(C(=O)CSc2nc3cc(Cl)ccc3c(=O)n2Cc2ccccc2)CC1", "Potency": "inactive"}
